# In the supplement of paper PMC9135407:
# Values joined by “and” are separate entries in the source; they are usually repeats but may differ in a detail not shown here. Equal entries are not always repeated. Structures can show the parent of a compound that is named as a salt. Hit rate of the full screen: of about 5,800 compounds, about 620 (11%) showed activity.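 The calls were made as follows: active = score above a cut-off or among the top three wells of a plate; in these data no inactive exceeds 0.85.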 The entries are a selection whose mix differs from that of the whole data set.
# System: primary human hepatic stellate cells (donor 1)
# Experiment: scaled lipid accumulation score (0 = DMSO-like, 1 = nortriptyline-like); higher = stronger HSC inactivation (lipid re-accumulation), active = hit call of the paper
# Details: 48 h
# [1] = library stock concentration: 3.33 mM
# [2] = library stock concentration: 10 mM
# [3] = library stock concentration: 80 uM
# [4] = library stock concentration: 400 uM
# [5] = library stock concentration: 2 mM
# [6] = library stock concentration: 5.2 mM
smiles,measurement,setting,value
NC(=O)N1CCC(CC(=O)N2CCC([C@H]3c4ncc(Br)cc4CCc4cc(Cl)cc(Br)c43)CC2)CC1 [Lonafarnib],scaled lipid accumulation score,[1],inactive: 0.06
same,scaled lipid accumulation score,[2],inactive: 0.101
"O=C1N[C@H](C(=O)O)CS1 [4-Thiazolidinecarboxylic acid, 2-oxo-, (R)- [CAS]]",scaled lipid accumulation score,[2],inactive: ≤ 0
C[C@H](N[C@@H](CCc1ccccc1)C(=O)O)C(=O)N1CCC[C@H]1C(=O)O,scaled lipid accumulation score,[2],inactive: ≤ 0
C[C@H](N[C@@H](CCc1ccccc1)C(=O)O)C(=O)N1CCC[C@H]1C(=O)O [Enalaprilat],scaled lipid accumulation score,library stock concentration: 5.7 mM,inactive: ≤ -0.006
C[C@H](N[C@@H](CCc1ccccc1)C(=O)O)C(=O)N1CCC[C@H]1C(=O)O [Enalaprilat dihydrate],scaled lipid accumulation score,[2],inactive: ≤ 0
C[C@H](N[C@@H](CCc1ccccc1)C(=O)O)C(=O)N1CCC[C@H]1C(=O)O [Enalaprilat Dihydrate],scaled lipid accumulation score,[1],inactive: ≤ 0
same,scaled lipid accumulation score,[2],inactive: ≤ 0
CN(C)[C@@H]1C(O)=C(C(N)=O)C(=O)[C@@]2(O)C(O)=C3C(=O)c4c(O)cccc4[C@@](C)(O)[C@H]3C[C@@H]12 [Tetracycline],scaled lipid accumulation score,library stock concentration: 4.5 mM,inactive: ≤ 0
CN(C)[C@@H]1C(O)=C(C(N)=O)C(=O)[C@@]2(O)C(O)=C3C(=O)c4c(O)cccc4[C@@](C)(O)[C@H]3C[C@@H]12 [Tetracycline hydrochloride],scaled lipid accumulation score,,inactive: ≤ 0
same,scaled lipid accumulation score,[2],inactive: ≤ 0
CN(C)[C@@H]1C(O)=C(C(N)=O)C(=O)[C@@]2(O)C(O)=C3C(=O)c4c(O)cccc4[C@@](C)(O)[C@H]3C[C@@H]12,scaled lipid accumulation score,[2],inactive: ≤ 0
CN1CCN(S(=O)(=O)c2ccc(-c3cnc(N)c(C(=O)Nc4cccnc4)n3)cc2)CC1,scaled lipid accumulation score,[1],inactive: 0.821
COc1ccc(-c2coc3cc(O)ccc3c2=O)cc1 [Formononetin],scaled lipid accumulation score,[1],inactive: ≤ 0
same,scaled lipid accumulation score,[2],inactive: ≤ 0 and inactive: ≤ -0.027
CNc1nc(-c2ccc3c(N)n[nH]c3c2)cc(N2C[C@@H](C(=O)NC3CCCCC3)CC[C@H]2C)n1,scaled lipid accumulation score,[3],inactive: ≤ -0.016
same,scaled lipid accumulation score,[4],inactive: ≤ -0.016
same,scaled lipid accumulation score,[5],inactive: ≤ -0.016
same,scaled lipid accumulation score,[1],inactive: ≤ 0
same,scaled lipid accumulation score,[2],inactive: 0.741 and inactive: 0.773
Oc1c(Br)cc(Br)c2cccnc12 [Broxyquinoline],scaled lipid accumulation score,[1],inactive: ≤ 0
same,scaled lipid accumulation score,[2],inactive: ≤ -0.001 and inactive: ≤ 0
Nc1ccc2ncnc(NCCc3ccc(Oc4ccccc4)cc3)c2c1,scaled lipid accumulation score,[3],inactive: ≤ -0.001
same,scaled lipid accumulation score,[4],inactive: ≤ -0.001
same,scaled lipid accumulation score,[5],inactive: ≤ -0.001
same,scaled lipid accumulation score,[1],inactive: ≤ 0
same,scaled lipid accumulation score,[2],inactive: ≤ -0.001 and inactive: 0.642
CCC(=O)O[C@H]1CC[C@H]2[C@@H]3CCc4cc(O)ccc4[C@H]3CC[C@]12C [Estradiol propionate],scaled lipid accumulation score,library stock concentration: 6.1 mM,inactive: 0.254
same,scaled lipid accumulation score,[2],inactive: 0.443
COc1cc2c(cc1OC)-c1cc3nc4ccccc4nc3n1C(C)(C)C2,scaled lipid accumulation score,[2],active: 0.923
CC(C)C[C@H](NC(=O)[C@H](Cc1ccccc1)NC(=O)c1cnccn1)B(O)O [Bortezomib (PS-341)],scaled lipid accumulation score,[1],inactive: 0.484
same,scaled lipid accumulation score,[2],inactive: 0.649
CC(C)C[C@H](NC(=O)[C@H](Cc1ccccc1)NC(=O)c1cnccn1)B(O)O [Bortezomib],scaled lipid accumulation score,[6],inactive: 0.806
"Cc1ccc2c(c1)C(=O)C1(O)CCN(c3ccccc3)C1=N2 (single isomer, unassigned; (-)) [(-)-Blebbistatin]",scaled lipid accumulation score,[3],inactive: ≤ -0.001
same,scaled lipid accumulation score,[4],inactive: ≤ -0.001
same,scaled lipid accumulation score,library stock concentration: 1 mM,inactive: ≤ 0
same,scaled lipid accumulation score,[5],inactive: ≤ -0.001
same,scaled lipid accumulation score,[1],inactive: ≤ -0.009
same,scaled lipid accumulation score,[2],inactive: 0.264
O=C(OCCN1CCOCC1)C1(c2ccccc2)CCCCC1 [PRE-084 hydrochloride],scaled lipid accumulation score,[2],inactive: 0.001
O=C(OCCN1CCOCC1)C1(c2ccccc2)CCCCC1,scaled lipid accumulation score,[2],inactive: ≤ -0.055
COc1ccc(CC(C)NCC(O)c2ccc(O)c(NC=O)c2)cc1 (stereo unspecified) [Formoterol Hemifumarate],scaled lipid accumulation score,[1],inactive: ≤ 0
same,scaled lipid accumulation score,[2],inactive: 0.066
COc1ccc(CC(C)NCC(O)c2ccc(O)c(NC=O)c2)cc1 (stereo unspecified) [Formoterol hemifumarate],scaled lipid accumulation score,[2],inactive: ≤ -0.006
COc1ccc(CC(C)NCC(O)c2ccc(O)c(NC=O)c2)cc1 (stereo unspecified),scaled lipid accumulation score,[2],inactive: ≤ 0
COc1ccc(CC(C)NCC(O)c2ccc(O)c(NC=O)c2)cc1 (stereo unspecified) [Formoterol],scaled lipid accumulation score,[2],inactive: 0.227
O=C1C(c2c(O)[nH]c3ccccc23)=Nc2ccccc21 [Indirubin],scaled lipid accumulation score,[1],inactive: ≤ 0
same,scaled lipid accumulation score,[2],inactive: 0.058
O=C1C(c2c(O)[nH]c3ccccc23)=Nc2ccccc21,scaled lipid accumulation score,[2],inactive: 0.454
CS(=O)(=O)c1ccc(C(=O)Nc2ccc(Cl)c(-c3ccccn3)c2)c(Cl)c1 [Vismodegib (GDC-0449)],scaled lipid accumulation score,[1],inactive: 0.002
same,scaled lipid accumulation score,[2],inactive: ≤ 0
O=C(COc1ccc(C(=O)c2ccccc2)cc1)NC1CCN(Cc2ccccc2)CC1 [AdipoRon],scaled lipid accumulation score,[1],inactive: 0.044
same,scaled lipid accumulation score,[2],inactive: 0.271
CC1(C)CCC(c2ccc(Cl)cc2)=C(CN2CCN(c3ccc(C(=O)NS(=O)(=O)c4ccc(N[C@H](CCN5CCOCC5)CSc5ccccc5)c(S(=O)(=O)C(F)(F)F)c4)cc3)CC2)C1 [ABT-263 (Navitoclax)],scaled lipid accumulation score,[1],inactive: 0.024
same,scaled lipid accumulation score,[2],inactive: 0.048
NC(=O)c1ccccc1O [Salicylamide],scaled lipid accumulation score,[2],inactive: ≤ 0
CCOC(=O)N1CCC(=C2c3ccc(Cl)cc3CCc3cccnc32)CC1,scaled lipid accumulation score,[2],inactive: ≤ 0
CCOC(=O)N1CCC(=C2c3ccc(Cl)cc3CCc3cccnc32)CC1 [Loratidine],scaled lipid accumulation score,[2],inactive: 0.128
CCOC(=O)N1CCC(=C2c3ccc(Cl)cc3CCc3cccnc32)CC1 [Loratadine],scaled lipid accumulation score,[1],inactive: ≤ 0
same,scaled lipid accumulation score,[6],inactive: ≤ 0
same,scaled lipid accumulation score,[2],inactive: ≤ 0 and inactive: 0.008
O=C(NOCC1CC1)c1ccc(F)c(F)c1Nc1ccc(I)cc1Cl,scaled lipid accumulation score,[3],inactive: ≤ 0
same,scaled lipid accumulation score,[4],inactive: 0.008 and inactive: ≤ -0.005
same,scaled lipid accumulation score,[5],inactive: 0.026 and inactive: ≤ -0.005
same,scaled lipid accumulation score,[1],inactive: ≤ 0
same,scaled lipid accumulation score,[2],inactive: ≤ 0 and inactive: 0.497
